The values below come from the supplement of paper PMC11417369.

± gives the standard deviation of the averaged measurements. Some of the results follow.

The assay relates to PfAP2-G AP2 domain (GST-tagged). Nature of the assay: gcPBM binding intensity (ln(normalized median fluorescence intensity)); higher = stronger DNA binding. Put shortly:
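Alexa488 anti-GST antibody, scanned at 488 nm, detected GST-tagged P. falciparum DNA-binding domains that had been expressed in E. coli and incubated for 1 h on an Agilent 4 × 180k array. The array carried primer-extended double-stranded 36-bp intergenic genomic probes and negative controls. Binding intensity is the highest Masliner-normalised natural-log median intensity across replicate spots of either orientation of each probe.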
With “TATATTTAGAGAGAGACACACAAAGGGACTTACACA [CACACA_site2545]”, the “gcPBM binding intensity (ln)” value amounted to 10.5 ± 0.3. Consider “ATGTATTTATTTTAACGTACAAGATATTATTATTAT [XGTACX_site4609]”, for which the “gcPBM binding intensity (ln)” value was determined as 11.1 ± 0.83. In the case of “AAATTATATATGATGTGTACATAAATATATACACAT [XGTACX_site8761]”, the “gcPBM binding intensity (ln)” value was 11.4 ± 0.83. TTTCCCTCAAATAAAGTGCATTATGATTTTAATTTA: the “gcPBM binding intensity (ln)” value turned out to be 9.84 ± 0.12. With “CTAATTGTGTATACCTGTACATATATATATATATAT [XGTACX_site416]”, the “gcPBM binding intensity (ln)” value turned out to be 11 ± 0.53. Then “TGTTATTCTACATATACACACAAATAACAATTTAAA [CACACA_site1824]”, with 10 ± 0.21. With “AAAAAAAAAAAGAACACACACAGTGCACATTCGGTG [CACACA_site788]”, the “gcPBM binding intensity (ln)” value was determined as 10.6 ± 0.26. For the sequence “AATACAAAAAAAGGTACACACATAATATATTTATTA [CACACA_site2628]”, the “gcPBM binding intensity (ln)” value turned out to be 11.3 ± 0.87.

With “TTAACTTTTTTATATGCACACATAAACAAGGATATA [CACACA_site8932]”, the “gcPBM binding intensity (ln)” value came out at 10.2 ± 0.28. Regarding “ATAATATATATATATATATTATCAAATATATATATA [GTGCAC_negctrl_site346]”, the “gcPBM binding intensity (ln)” value was determined as 9.55 ± 0.23. As to “TCCACTTAACTCAATTGTACAAAAATAAAAATTAAA [XGTACX_site855]”, the “gcPBM binding intensity (ln)” value is 10.9 ± 0.67.

As for TTTTATGCGCAATAAGTGCATTTAAAATATATATAT, the “gcPBM binding intensity (ln)” value was found to be 10.2 ± 0.31. Then “GTAATATGTATCCATACACACATACAGTTTATTTGC [CACACA_site6540]”, with 10.3 ± 0.27. Turning to “TGTGTATATCGATAAAGTACATTTGAAAAGTGACTT [XGTACX_site6957]”, the “gcPBM binding intensity (ln)” value was 11.1 ± 0.69. On to “TTTTTATATTTTACATGTACATAAATATATTATATA [XGTACX_site958]”, for which the “gcPBM binding intensity (ln)” value is 11.4 ± 0.82. Then “AATAATGAATTGAAATGTACATATTTTTATTAATAC [XGTACX_site8899]”, with 11 ± 0.42.

Consider “ATCACCAAATGGGCTATACAACAATGAGAAATGGTA [CACACA_negctrl_site48]”, for which the “gcPBM binding intensity (ln)” value was 10.1 ± 0.18. For the sequence “TTCACATGAAGAATTAAAATAAAACTAGGAAATTAA [CACACA_negctrl_site1047]”, the “gcPBM binding intensity (ln)” value came out at 9.72 ± 0.13. As for “AAAAAAAACGGACACACACACATTCAATATAAAACA [CACACA_site4189]”, the “gcPBM binding intensity (ln)” value was 11.3 ± 0.96. For “GTATTAATATATAATTGTACTTTTTTTTTTTTTTTT [XGTACX_site4369]”, the “gcPBM binding intensity (ln)” value was 11.6 ± 1. In the case of “TTTTTCATAAAACACACACACAAAAATAATGTGGAA [CACACA_site3687]”, the “gcPBM binding intensity (ln)” value worked out at 10.2 ± 0.18. As for “AATATAATATAATATAGTACGTAAAAATATTATACA [XGTACX_site2170]”, the “gcPBM binding intensity (ln)” value was 11.2 ± 0.91. The same measure for “ATACGAAGAAATGTTCATTTATTTCGAACATTTAAT [CACACA_negctrl_site1481]”: 9.735 ± 0.064.

Take “AATAATATATGGACATGTACATAATATATATTTTTT [XGTACX_site312]”: the “gcPBM binding intensity (ln)” value amounted to 11.2 ± 0.56. For “TCAAATGTGTAATCTTGTACACATTAAAAGAAAAAA [XGTACX_site8822]”, the “gcPBM binding intensity (ln)” value is 11.2 ± 0.83. For the sequence “TTCATATAATTCATCTGTACATATTGATAGTATGCA [XGTACX_site6386]”, the “gcPBM binding intensity (ln)” value is 10.9 ± 0.54. Turning to “TGTTTTATTTATTAAGCACACGCGATTTAAAAAATA [CACACA_site981]”, the “gcPBM binding intensity (ln)” value turned out to be 10 ± 0.19. Consider “AAAAAAACACACACATATATATATATATATATATAT [GTGCAC_negctrl_site498]”, for which the “gcPBM binding intensity (ln)” value was 10.3 ± 0.9. Take TTTGTTCTTTTTGAAGTGCACTGAAATATAACAAAA: the “gcPBM binding intensity (ln)” value was determined as 10.5 ± 0.55. As to “AAGAAAAAGAATAACCTTATTTCTATATACTAATTT [TGCATGCA_negctrl_site477]”, the “gcPBM binding intensity (ln)” value amounted to 9.62 ± 0.18.

Take “ATCAAAATTGTCATTACACACCTTTATTTTTATAAT [CACACA_site5071]”: the “gcPBM binding intensity (ln)” value worked out at 10.3 ± 0.18. Then ATAGTAATAGAATGATTGCACTTAAATTTTCCCTCT, with 9.87 ± 0.057. With “GTATACATATTTATAATAATAAATGTCTTATATTTT [CACACA_negctrl_site688]”, the “gcPBM binding intensity (ln)” value worked out at 9.755 ± 0.021. As for “ATAATTAATGATGTATGTACGGAATTTATATATTTG [XGTACX_site5685]”, the “gcPBM binding intensity (ln)” value was 11 ± 0.54.

On to “TATCTTATATATAAGTGTACGCAGATTCTTACGATA [XGTACX_site6058]”, for which the “gcPBM binding intensity (ln)” value worked out at 11.5 ± 1. As for “TAATATATTAATATATGTACGTATTTTTATTAATAT [XGTACX_site5346]”, the “gcPBM binding intensity (ln)” value was determined as 11.6 ± 0.93. Then “TTAAATAATTCTTTTAGTACACACGAATAAGCAGAT [XGTACX_site623]”, with 11.2 ± 0.78; and “CATACATACAAACACACACACATATATATACATACA [CACACA_site852]”, with 10.2 ± 0.34; and “ATATATATATATATATGTACATATGTCAACTGTCTA [XGTACX_site8636]”, with 11.2 ± 0.44. “CACAGACACGGACACACACACACACCCAGACACATA [CACACA_site4357]”: the “gcPBM binding intensity (ln)” value amounted to 11.3 ± 0.86.

Take “CATATACACGAACACACACACACACGCACAAAAAAA [CACACA_site6376]”: the “gcPBM binding intensity (ln)” value is 10.6 ± 0.51.

With “TATGTATTAATGAGAACATGCAAAATAATAAACAAT [TGCATGCA_site362]”, the “gcPBM binding intensity (ln)” value amounted to 10.2 ± 0.13. For “ATATATCAAATAGACAAACACACAAAGGAAGAGTGA [CACACA_site3922]”, the “gcPBM binding intensity (ln)” value is 10.01 ± 0.035. Regarding “CATATAAAAATGTGCACACACACACCGATATATATT [CACACA_site4940]”, the “gcPBM binding intensity (ln)” value came out at 10.5 ± 0.3. “CCACAGGATTGGTTCAAACACACATATTATATGACT [CACACA_site661]”: the “gcPBM binding intensity (ln)” value amounted to 10.21 ± 0.014. On to “TATTTTTTTTTTTTTTGTACACATAATTGTAATCGT [XGTACX_site8415]”, for which the “gcPBM binding intensity (ln)” value is 11.3 ± 0.84. Take “TCACTTTTTATTAAATGTACATGCTTTCATTTTCAT [XGTACX_site8139]”: the “gcPBM binding intensity (ln)” value stood at 10.9 ± 0.52. For the sequence “GAATAAATAATTAACACACACAATCTTTTTTTTTTT [CACACA_site3140]”, the “gcPBM binding intensity (ln)” value came to 9.61 ± 0.11. As for “TATATATATATATATGTACACACATCAATCATATTA [CACACA_site8594]”, the “gcPBM binding intensity (ln)” value turned out to be 11.3 ± 0.76. For “AAAAAAAAAATAAAATAAAATATATTATATATATTA [GTGCAC_negctrl_site431]”, the “gcPBM binding intensity (ln)” value turned out to be 9.12 ± 0.25. The same measure for “TATATATATATATATACACACTTGTGCAGAATATTA [CACACA_site5257]”: 10.1 ± 0.29; for “TGTACGAGTCGTAGAGTGCAGTCTGGAGAAAAGTAC [GTGCAC_site9683]”: 11.2 ± 0.76.

In the case of “AATAATGAAAAAATGAATAAAATTACTATATAATTC [XGTACX_negctrl_site457]”, the “gcPBM binding intensity (ln)” value is 9.73 ± 0.17.

On to “GATATGATGTGTTTGGTAGTTTTTGATGTTGGCATG [GTGCAC_negctrl_site506]”, for which the “gcPBM binding intensity (ln)” value amounted to 10.09 ± 0.042.

Take “AAATAAATAAATAGACGTACAAAAATATTATACATT [XGTACX_site6776]”: the “gcPBM binding intensity (ln)” value amounted to 11.2 ± 0.8. Take “GTAAATAATAAACACCGTACATGGTATAATTCAATG [XGTACX_site3655]”: the “gcPBM binding intensity (ln)” value was determined as 10.7 ± 0.33.

For the sequence “TATAAATGTGTATGCGCATGTAAAAATATAATTTAT [TGCATGCA_site750]”, the “gcPBM binding intensity (ln)” value stood at 10.21 ± 0.078.
